Test results reported in US20080044419A1, “Treatment of T Cell Mediated Diseases by Inhibition of Fgfr3” (Fibron Ltd., priority 2003, published 2008).

Target: FGFR3 (Homo sapiens, UniProt P22607)
Test: FDCP-FGFR3 proliferation assay performed with FGF9
Type: cell-based
Settings: dimeric dHLX format

Chain of FGFR3 (P22607 23-806): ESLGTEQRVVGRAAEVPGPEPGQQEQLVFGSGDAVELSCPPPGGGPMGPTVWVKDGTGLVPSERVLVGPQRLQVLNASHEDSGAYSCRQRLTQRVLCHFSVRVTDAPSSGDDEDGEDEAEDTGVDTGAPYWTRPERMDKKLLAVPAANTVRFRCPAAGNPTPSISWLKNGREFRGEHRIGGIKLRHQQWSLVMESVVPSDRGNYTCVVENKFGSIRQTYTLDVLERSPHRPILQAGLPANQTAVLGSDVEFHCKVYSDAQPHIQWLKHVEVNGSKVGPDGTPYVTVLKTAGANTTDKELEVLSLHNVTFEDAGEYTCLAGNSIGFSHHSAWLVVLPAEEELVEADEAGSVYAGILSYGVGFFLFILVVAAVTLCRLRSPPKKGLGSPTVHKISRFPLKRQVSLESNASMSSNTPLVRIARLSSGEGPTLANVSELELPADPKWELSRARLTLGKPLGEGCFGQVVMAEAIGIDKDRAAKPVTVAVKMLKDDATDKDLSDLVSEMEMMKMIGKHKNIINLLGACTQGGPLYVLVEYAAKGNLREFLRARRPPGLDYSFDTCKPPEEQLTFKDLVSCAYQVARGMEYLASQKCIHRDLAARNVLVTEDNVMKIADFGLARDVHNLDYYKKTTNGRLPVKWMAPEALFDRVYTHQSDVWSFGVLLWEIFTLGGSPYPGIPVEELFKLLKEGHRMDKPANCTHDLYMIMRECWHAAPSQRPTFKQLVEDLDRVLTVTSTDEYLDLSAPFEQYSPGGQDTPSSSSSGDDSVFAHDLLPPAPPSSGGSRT

B1: PRO-024: HuCAL clone anti-FGFR3 antibody; VH-CDR3 SEQ ID NO:5, VL-CDR3 SEQ ID NO:14 (antibody, V domains shown)
VH: QVQLVQSGAEVKKPGSSVKVSCKASGGTFSSYAISWVRQAPGQGLEWMGGIIPIFGTANYAQKFQGRVTITADESTSTAYMELSSLRSEDTAVYYCARVNHWTYTFDYWGQGTLVTVSS
VL: DIVLTQSPATLSLSPGERATLSCRASQSVSSSYLAWYQQKPGQAPRLLIYGASSRATGVPARFSGSGSGTDFTLTISSLEPEDFATYYCQQMSNYPDTFGQGTKVEIKRT
IC50: 70 nM
